Measurements: PubChem BioAssay AID624173 (National Center for Advancing Translational Sciences (NCATS), 2012)
Out of some 410,000 compounds screened, about 490 (0.12%) were called active. The inconclusive results got no clear call from the source; some entries with a clear call stand among them for comparison. Calls follow the shape of the dose curve; as a rule, active = well fitted inhibition curve with a large enough effect; inconclusive = small, poorly fitted or top-dose-only effect; inactive = flat fitted curve, though single readings scatter. A potency beside an inconclusive call is a rough fit, not a confirmed value.
% is scaled to controls: 0 for no effect and ±100 for the full control effect; potency is read from the fitted curve at half-maximal effect; tags tell the direction and shape of the fitted curve.
Also: nearly all actives have a fitted effect of over 50% in size.

What follows are compounds tested against pyruvate kinase (Trypanosoma brucei) (UniProt Q57TT1) (assay: qHTS of Trypanosoma Brucei Inhibitors). Conditions: TbPYK enzyme, Kinase-Glo Plus ATP luminescence, 45 min; series mostly up to 76.8 µM; activity, negative = inhibition: at the top concentration.
Summary of the method: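 Luminescence from Kinase-Glo Plus, added after a 45-minute room-temperature reaction, served as the end-point read-out. The enzyme and substrate were preincubated with compound before ADP (130 uM final) initiated turnover. Concentration-effect curves came from normalized qHTS data.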
In the case of `O=C(CN1C(=O)NC2(CCCCC2)C1=O)NCC(=O)Nc1ccc(F)c(F)c1`, the “activity, negative = inhibition” value is reported as inactive: 4.92%. For `O=C(OCC(=O)N1CCN(C(=O)c2ccco2)CC1)c1cc(-c2ccco2)nc2ccccc12`, the Potency was inconclusive: 15.8 µM [inhibitor, partial curve, poor fit]. `S=c1[nH]nc(-c2cc(-c3ccsc3)n[nH]2)n1-c1ccccc1` was tested, and the Potency was active: 2.82 µM. With `COc1cccc(C2CC(=O)N3CN(C4CCCCC4)CSC3=C2C#N)c1` (configuration not stated) the Potency was inconclusive: 12.6 µM [inhibitor, partial curve, poor fit]. `O=[N+]([O-])c1ccccc1/C=C/C=N/n1c(-c2ccco2)n[nH]c1=S` was tested, and the Potency was inconclusive: 2.24 µM [inhibitor, full curve, poor fit]. For `O=C(NCCc1ccccc1)c1ccc(NC(=O)c2cccnc2)cc1`, the “activity, negative = inhibition” value was inactive: 0.799%. With `CCOC(=O)C1(CCc2ccccc2)CCN(C(=O)CCc2cnccn2)CC1` the “activity, negative = inhibition” value was inactive: -6.78%. With `COc1ccc(C(=O)NCCn2cc(SCC(=O)NCc3ccco3)c3ccccc32)cc1` the Potency was inconclusive: 6.31 µM [inhibitor, full curve]. In the case of `Cc1n[nH]c(=S)n1/N=C/c1ccc(-c2ccccc2[N+](=O)[O-])o1`, the Potency is reported as active: 7.94 µM. With `C=CCn1c(C)cc(C2=NNC(=NC(C)(C)C)SC2)c1C` the Potency was inconclusive: 17.8 µM [inhibitor, partial curve]. `N#CC1=C(N)NC(=S)C(C(N)=O)C1c1ccccc1F` (configuration not stated) was tested, and the Potency was inconclusive: 31.6 µM [inhibitor, single point]. In the case of `Clc1ccc2oc(-c3ccccc3)nc2c1`, the “activity, negative = inhibition” value is reported as inactive: 1.21%. `CCOC(=O)c1c(NS(=O)(=O)c2ccc(Br)cc2)sc2c1CCC2` was tested, and the Potency was active: 28.2 µM. In the case of `C=CCn1c(OCc2ccccc2)n[nH]c1=S`, the Potency is reported as inconclusive: 14.1 µM [inhibitor, partial curve]. For `Cc1c(-c2cc(C(=O)O)no2)cnn1C`, the “activity, negative = inhibition” value was inactive: 1.18%. With `S=c1[nH]nc(C2CCCCC2)n1/N=C/c1cccs1` the Potency was inconclusive: 10 µM [inhibitor, partial curve, poor fit]. In the case of `CCn1c(-c2cccc(S(=O)(=O)N3CCCC3)c2)n[nH]c1=S`, the Potency is reported as inconclusive: 25.1 µM [inhibitor, partial curve]. `CCOC1(NC(=O)c2ccccc2)C(C)=CC(=O)C=C1C` was tested, and the Potency was inconclusive: 31.6 µM [inhibitor, single point]. For `CCOC(=O)C1=C(CSc2nc(-c3ccccc3)ccc2C#N)OC(N)=C(C#N)C1c1cccnc1` (configuration not stated), the Potency was inconclusive: 25.1 µM [inhibitor, partial curve, poor fit]. For `CCCCCCCCNc1ncnc2[nH]ncc12`, the “activity, negative = inhibition” value was inactive: 0%. In the case of `CCn1c(SCC(=O)c2ccccc2)nc2c(c1=O)SC(C)C2` (configuration not stated), the Potency is reported as inconclusive: 50.1 µM [inhibitor, single point]. With `Cc1ccc(C2=NN=C(NC(=O)CSc3nncn3C)SC2)cc1` the Potency was inconclusive: 15.8 µM [inhibitor, partial curve, poor fit]. With `O=C(c1cc(COc2ccc(F)c(F)c2)on1)N1CCN(C2CCCCC2)C(=O)C1` the “activity, negative = inhibition” value was inactive: -3.49%. In the case of `CCOC(=O)c1cnc2ccc(C)cc2c1Nc1ccc(N(CC)CC)cc1`, the “activity, negative = inhibition” value is reported as inactive: 4.29%. `CC(NC(=O)CC12CC3CC(CC(C3)C1)C2)C(=O)O` (configuration not stated) was tested, and the Potency was inconclusive: 5.01 µM [inhibitor, full curve, poor fit]. With `Cn1c(N)c(C(=O)Nc2ccc(-c3ccccc3)cc2)sc1=S` the Potency was inconclusive: 25.1 µM [inhibitor, partial curve, poor fit]. With `Cc1cccc(OCC(=O)NC(=S)NNC(=O)c2ccncc2)c1` the Potency was inconclusive: 5.01 µM [inhibitor, partial curve, poor fit]. For `S=c1[nH]nc(-c2ccccc2Br)n1Cc1ccccc1`, the Potency was inconclusive: 39.8 µM [inhibitor, single point]. `CCOc1cc2[nH]c(=S)n(Cc3ccc(C(=O)NCCCN(CC)CC)cc3)c(=O)c2cc1OCC` was tested, and the Potency was inconclusive: 31.6 µM [inhibitor, single point]. For `CSc1c(SCc2ccccc2)cnn(Cc2ccccc2)c1=O`, the Potency was inconclusive: 17.8 µM [inhibitor, partial curve, poor fit]. In the case of `O=C(O)c1ccc(-c2ccc(/C=c3/sc4nc5ccccc5n4c3=O)o2)cc1Cl`, the Potency is reported as inconclusive: 50.1 µM [inhibitor, single point]. `CC1CCCCC1NC(=O)CCCCCn1c(=S)[nH]c2ccsc2c1=O` (configuration not stated) was tested, and the Potency was inconclusive: 35.5 µM [inhibitor, partial curve, poor fit]. `Cc1cc(C)cc(Oc2nc3ccccn3c(=O)c2/C=C(\C#N)c2nc3ccccc3s2)c1` was tested, and the Potency was inconclusive: 0.891 µM [inhibitor, full curve, poor fit]. `O=C1N/C(=C/c2ccc(N3CCOCC3)o2)C(=O)N1c1ccccc1` was tested, and the Potency was inconclusive: 31.6 µM [inhibitor, partial curve]. `CN(Cc1cc2cc(F)ccc2[nH]1)Cc1nc(-c2cnccn2)no1` was tested, and the Potency was inconclusive: 35.5 µM [inhibitor, partial curve]. With `CCCn1cc(S(=O)(=O)c2ccc(Cl)cc2)c(=O)c2cc(OC)ccc21` the Potency was inconclusive: 39.8 µM [inhibitor, single point]. For `O=S(=O)(/N=S1/CC=CCN1S(=O)(=O)c1ccccc1)c1ccccc1` (configuration not stated), the Potency was inconclusive: 2.51 µM [inhibitor, full curve, poor fit]. For `COc1ccc2c(c1)c(/C=N/Nc1nc3ccccc3[nH]1)c(C)n2C`, the Potency was inconclusive: 44.7 µM [inhibitor, single point]. For `O=C(Nc1cccc(F)c1)N1CC[C@@]2(CCCNC2)C1`, the “activity, negative = inhibition” value was inactive: -7.26%. In the case of `O=C(NCCC1=CCCCC1)C(=O)NCc1ccccc1`, the “activity, negative = inhibition” value is reported as inactive: 2.87%. In the case of `Cc1ccc(/C=C/C(=O)Nc2ccc(Oc3ccccc3)cc2)o1`, the Potency is reported as inconclusive: 31.6 µM [inhibitor, single point]. `Oc1cc(-c2ccncc2)cc2cccnc12` was tested, and the “activity, negative = inhibition” value was inactive: -2.13%. `COc1ccc(-c2nnc(N(C)C(=O)c3ccco3)s2)cc1OC` was tested, and the “activity, negative = inhibition” value was inactive: 0%. In the case of `COc1cc(-c2n[nH]c(=S)n2-c2cccc(C(F)(F)F)c2)cc(OC)c1OC`, the Potency is reported as inconclusive: 20 µM [inhibitor, partial curve, poor fit]. `O=C(COC(=O)c1cc([N+](=O)[O-])ccc1NCCO)Nc1ccc2c(c1)OCO2` was tested, and the “activity, negative = inhibition” value was inactive: 0.968%. In the case of `CC(=O)c1ccc(S(=O)(=O)Nc2ccc(C(=O)N3CCC3)cc2)cc1`, the “activity, negative = inhibition” value is reported as inactive: -5.19%. `COc1ccccc1NC(=O)c1cc(S(=O)(=O)NCCC2=CCCCC2)ccc1F` was tested, and the “activity, negative = inhibition” value was inactive: -8.75%. For `COc1ccc(F)cc1S(=O)(=O)N1CCN(c2ccccn2)CC1`, the Potency was inconclusive: 50.1 µM [inhibitor, single point]. With `COc1ccc(Nc2ncnc3sccc23)cc1` the “activity, negative = inhibition” value was inactive: -4.6%. In the case of `N#CCCn1ccc(NC(=O)c2ccc(Cl)cc2)n1`, the “activity, negative = inhibition” value is reported as inactive: 2.35%. In the case of `Fc1ccc(/C=N/n2c(-c3cccs3)n[nH]c2=S)cc1`, the Potency is reported as inconclusive: 20 µM [inhibitor, partial curve, poor fit]. With `COc1ccc(/C=N\NC(=O)c2ccc(F)cc2)cc1COc1ccccc1C(N)=O` the “activity, negative = inhibition” value was inactive: -1.86%. In the case of `C[C@H](NC(=O)c1cc2c(cn1)[nH]c1ccccc12)C(=O)O`, the Potency is reported as inconclusive: 31.6 µM [inhibitor, partial curve, poor fit]. For `Cc1ccc(-c2nc3cc(C(C)C)ccc3o2)cc1NC(=O)c1cc([N+](=O)[O-])ccc1N1CCOCC1`, the “activity, negative = inhibition” value was inactive: -3.61%. In the case of `S=c1[nH]nc2ccccn12`, the Potency is reported as inconclusive: 15.8 µM [inhibitor, partial curve]. For `CC1=CC(=O)C(Sc2ccc(C)cc2)=CC1=O`, the Potency was active: 7.08 µM. With `COCC(O)CNc1ccccc1` (configuration not stated) the “activity, negative = inhibition” value was inactive: -15.6%. `Cc1ccccc1S(=O)(=O)N1C[C@H]2[C@H]3C(=O)N(c4ccccc4)C(=O)[C@H]3CC(=O)[C@H]2[C@@H]1c1ccc(Cl)cc1` was tested, and the “activity, negative = inhibition” value was inactive: 3.04%. In the case of `CC(C)(C)CC(C)(C)SSc1n[nH]c(=S)s1`, the Potency is reported as inconclusive: 12.6 µM [inhibitor, partial curve, poor fit]. `COc1ccc(C(=O)Nc2ccc(S(=O)(=O)NC(C)=O)cc2)cc1` was tested, and the Potency was inconclusive: 15.8 µM [inhibitor, partial curve, poor fit]. For `CCOC(=O)CCc1c(C)nc(SCCCn2c(=O)[nH]c3ccccc32)c(C#N)c1C`, the Potency was inconclusive: 31.6 µM [inhibitor, partial curve, poor fit]. With `Cn1c(=O)c2c(nc(SCc3cccnc3)n2Cc2ccccc2)n(C)c1=O` the Potency was inconclusive: 1.26 µM [inhibitor, full curve, poor fit]. For `N/C(=N\O)c1ccc(Cl)cc1Cl`, the “activity, negative = inhibition” value was inactive: 2.45%. In the case of `CC(=O)c1c(C)[nH]c(C(=O)COC(=O)c2c(-c3ccccc3)noc2C)c1C`, the “activity, negative = inhibition” value is reported as inactive: -4.93%. In the case of `COc1cccc(Nc2ncnc3nc[nH]c23)c1`, the “activity, negative = inhibition” value is reported as inactive: -10.2%. In the case of `O=C(Nc1ccc(Cl)cc1)C(Cl)C(=O)c1ccccc1` (configuration not stated), the Potency is reported as inconclusive: 35.5 µM [inhibitor, partial curve, poor fit]. For `COc1cc(Cl)ccc1NC(=S)N(CCCN1CCOCC1)Cc1cn(C)c2ccccc12`, the Potency was inconclusive: 6.31 µM [inhibitor, partial curve]. In the case of `Cc1ccc(NC(=O)c2onc(C)c2Cl)cc1`, the “activity, negative = inhibition” value is reported as inactive: -6.75%. `Cc1ccc(S(=O)(=O)n2nc(OC(=O)c3c(-c4ccccc4Cl)noc3C)cc2N)cc1` was tested, and the Potency was inconclusive: 39.8 µM [inhibitor, single point]. For `O=C1NC(=O)N(c2cccc(F)c2)C(=O)/C1=C/c1ccc(N2CCOCC2)cc1`, the Potency was inconclusive: 35.5 µM [inhibitor, single point]. In the case of `COc1cccc(NC(=O)Cn2c(=O)n(Cc3ccco3)c(=O)c3cc(OC)c(OC)cc32)c1`, the “activity, negative = inhibition” value is reported as inactive: -1.28%. With `C=CCn1c(=S)[nH]c2sc3c(c2c1=O)CCC3` the Potency was inconclusive: 17.8 µM [inhibitor, partial curve].
